Out of some 340,000 compounds screened, about 6,900 (2%) were called active. Cut-off read from the data, not from the text of the source: active = inhibition above about 30%; inactive = below that, where a call was filed. This is a selection; strong and weak results do not stand in their true shares. Entries without a call were filed so in the source.

For this assay, the target named is D(2) dopamine receptor (Homo sapiens) (UniProt P14416). Kind of assay: HTS Assay for Allosteric Antagonists of the Human D2 Dopamine Receptor: Primary Screen for Antagonists. Note: 0% is about no effect. The conditions noted are these: HEK293 TREx D2 cells, calcium flux, dopamine EC80; at 10 µM; stronger effect = higher value. The procedure, abridged: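 In this primary screen, negative modulation is detected by tracking calcium flux after an EC80 dopamine challenge in inducible HEK293 T-REx D2 cells preexposed to test compound for 180 s.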
Sequence of UniProt P14416 (P14416 whole entry, looked up): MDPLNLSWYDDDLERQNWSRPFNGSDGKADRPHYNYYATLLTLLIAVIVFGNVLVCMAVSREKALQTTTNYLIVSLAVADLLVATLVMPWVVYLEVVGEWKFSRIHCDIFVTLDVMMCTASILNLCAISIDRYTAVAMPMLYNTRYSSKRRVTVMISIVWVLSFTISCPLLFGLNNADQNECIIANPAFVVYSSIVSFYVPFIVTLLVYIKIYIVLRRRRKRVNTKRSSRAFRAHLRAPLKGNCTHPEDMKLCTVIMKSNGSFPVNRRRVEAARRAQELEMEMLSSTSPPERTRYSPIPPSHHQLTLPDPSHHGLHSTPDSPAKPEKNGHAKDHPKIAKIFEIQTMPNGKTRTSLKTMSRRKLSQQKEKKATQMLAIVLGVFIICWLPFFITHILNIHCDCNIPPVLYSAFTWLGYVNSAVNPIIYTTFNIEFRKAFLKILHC
Take `Cc1cccc(C)c1Nc1nn2c(=O)c3cc4c(cc3nc2s1)OCO4`: the inhibition is -9.01%.
Next, `CCc1ccc(S(=O)(=O)N(C(=O)c2ccncc2)c2ccc3oc(C)c(C(=O)OC)c3c2)cc1`: 5.39%.
Next, `COc1ccc(CC(=O)N2CCc3cc(OC)c(OC)cc3C2COc2cc(C)cc(C)c2)cc1OC` (stereo not drawn): 16%.
Regarding `O=C(Nc1ccc(-n2nncc2-c2ccco2)cc1)c1cccc(F)c1`, the inhibition is active: 42%.
Regarding `Cc1nn(S(=O)(=O)c2ccc(Br)cc2)c(C)c1S(=O)(=O)N1CCCCCC1`, the inhibition is -4.58%.
For the compound `CCOC(=O)c1ccc(N2C(=O)c3n[nH]c(-c4ccco4)c3C2c2ccc(C)cc2)cc1` (stereo not drawn), the inhibition is 10.4%.
Next, `Cc1cc(C)cc(NC(=O)CCS(=O)(=O)c2cccc3nsnc23)c1`: 6.3%; `Cc1ccc(-n2c(=O)cc(N3CCN(c4ccccc4Cl)CC3)[nH]c2=O)cc1`: 16.3%.
Next, `O=C(Nc1cccc(Cl)c1Cl)c1cc(S(=O)(=O)NCc2ccc3c(c2)OCO3)ccc1F`: -2.77%.
The same measure for `Brc1ccccc1OCCCCN1CCCCC1`: active: 75.8%; for `CC(CCc1ccc(O)cc1)NCc1ccc(Cl)cc1Cl` (stereo not drawn): active: 57%.
For the compound `CCC1CN(C(=O)N2CCC(C(=O)Nc3ccccc3F)CC2)c2ccccc2O1` (stereo not drawn), the inhibition is -3.98%.
Next, `CCCC(=O)Nc1ccccc1OCc1cc(=O)n2cc(C)ccc2n1`: -4.68%; `Cc1ccc(CCNC(=O)c2ccc3c(Cl)c4c(nc3c2)CCCC4)cc1`: 7.37%; `COc1ccc(NC(=O)CN2C(=O)COc3ccc(S(=O)(=O)N4CCCCCC4)cc32)cc1`: 3.97%.
The same measure for `COc1ccccc1CNC(=O)c1ccc2nc(N3CCCCC3)sc2c1`: 28.1%; for `Cc1ccc(C)c(N2CCN(c3c(CN4CCCC4)c(=O)oc4ccccc34)CC2)c1`: 7.35%; for `Cn1nnnc1SCCCNCc1cc(Cl)ccc1OCc1ccc(F)cc1`: -28.6%.
For `COC(=O)c1c(NC(=O)c2nc(SCc3ccc(F)cc3)ncc2Cl)sc2c1CCCC2`, the inhibition is -2.33%.
The same measure for `COc1ccccc1/C=N/NC(=O)c1ccc(Br)cc1`: active: 71.6%.
Regarding `Cc1nn2c(=O)cc(COC(=O)Cc3ccccc3)nc2s1`, the inhibition was -9.49%.
In the case of `Nc1c(C(=O)Nc2ccc(OC(F)(F)F)cc2)sc2nc(-c3ccncc3)ccc12`, the inhibition was -7.95%.
The same measure for `CCOc1ccccc1-c1noc(CSc2nnc(-c3ccccc3)n2-c2ccc(F)cc2)n1`: 8.43%; for `CCCCSc1nnc2c(n1)OC(c1ccc(Br)s1)N(C(C)=O)c1ccccc1-2` (stereo not drawn): -0.235%; for `CSc1ccc(CCNC(=O)Cn2ccc3cc(S(=O)(=O)N4CCCCCC4)ccc32)cc1`: -10.5%.
Consider `Cc1ccc(CN2CCCN(CC(=O)Nc3ccc(C)cc3C)S2(=O)=O)cc1`, for which the inhibition was -0.875%.
The same measure for `Cc1c(C(=O)Nc2ccc(C(=O)O)cc2)nnn1-c1ccccc1`: -3.03%.
The same measure for `Cc1c(Cl)cccc1NC(=O)c1ccc2c(c1)CCN2S(=O)(=O)c1ccccc1`: 18.6%; for `c1ccc(CC2CCN(c3nc4ccccc4n4cnnc34)CC2)cc1`: active: 37.6%; for `O=C(Nc1nc2n(n1)C(c1ccc(F)cc1)C=C(c1ccccc1)N2)c1ccco1` (stereo not drawn): 3.17%.
The same measure for `O=c1c(-c2cc(-c3ccccc3)nc3c2COc2ccc(Cl)cc2-3)coc2ccc(F)cc12`: 8.65%; for `CN(C)CCNc1ncnc2c1cnn2-c1cccc(Cl)c1`: 3.28%.
Regarding `CN(C)c1ccc(C(CNC(=O)c2ccccc2C(F)(F)F)N2CCOCC2)cc1` (stereo not drawn), the inhibition is -11.4%.
On to `CCn1c2ccccc2c2cc(NC(=O)Cc3ccc(S(=O)(=O)N4CCOCC4)s3)ccc21`, for which the inhibition was active: 36.2%.
The same measure for `Cc1ccc(S(=O)(=O)N2CCCc3cc(NS(=O)(=O)c4cc(F)ccc4F)ccc32)cc1`: -9.26%; for `O=C(Nc1cccc(NC(=O)c2ccccc2F)c1)c1ccccc1`: 0.165%.
In the case of `O=C(Cn1cc(S(=O)(=O)N2CCCC2)c(S(=O)(=O)N2CCCC2)c1)Nc1ccccc1`, the inhibition is -6.52%.
Take `COc1cc(C2CC(=O)c3cnc(N4CCN(CCO)CC4)nc3C2)cc(OC)c1OC` (stereo not drawn): the inhibition is 3.83%.
Take `Cn1c(=O)c(=O)n(C)c2cc(S(=O)(=O)N3CCN(c4ccc(F)cc4)CC3)ccc21`: the inhibition stood at 11.5%.
Next, `CCOC(=O)c1ccc(N2C(=O)c3n[nH]c(-c4ccco4)c3C2c2ccc(OCC)cc2)cc1` (stereo not drawn): 12.9%.
Next, `CC(C)c1ccc(NC(=O)CC2NCCNC2=O)cc1` (stereo not drawn): 10.6%; `O=C(CSc1nc2c(oc3ccccc32)c(=O)n1-c1ccccc1)Nc1ccccc1F`: 10.1%; `COc1ccc2c(Sc3ccc(C)cc3)c(C(=O)NCc3ccc(F)cc3)[nH]c2c1`: 9.7%.
Next, `COc1ccccc1NC(=O)C1=C(C)Nc2nc(CCCO)nn2C1c1cccc(O)c1` (stereo not drawn): 7.2%.
As to `CCOC(=O)c1c(C)[nH]c(CCC(=O)Nc2c(C)cccc2CC)c1C`, the inhibition was -6.12%.
Next, `CCNc1ncnc2c1nnn2C`: -9.13%; `Cc1cccc(-c2nc3ccccc3n2Cc2ccccc2)c1`: 6.49%.
Next, `CCC(=O)Nc1ccccc1-c1nc2ccccc2n(CC(=O)c2ccc(Cl)cc2)c1=O`: 21.5%; `CCOC(=O)N1CCc2c(sc(NCc3cccc(F)c3)c2C(=O)Nc2ccc(OC)cc2OC)C1`: 7.67%.
The same measure for `CN(C/C=C/c1ccccc1[N+](=O)[O-])Cc1ccccc1`: active: 56.7%; for `Cc1ccc(S(=O)(=O)c2nnn3c2nc(NC(C)C)c2sccc23)cc1`: 17.8%; for `CCc1ccc(OCc2cc(=O)n3c4c(sc3n2)CCCC4)cc1`: 2.42%.
For `CCCN(CCC)CCCNC(=O)c1cn(CC)c2ccc(S(=O)(=O)N(C)C3CCCCC3)cc2c1=O`, the inhibition was found to be 4.28%.
Turning to `COc1cccc(N2CCN(C(=O)C3Cc4ccccc4N3C(C)=O)CC2)c1` (stereo not drawn), the inhibition is -18.1%.
The same measure for `O=C(C1CCC1)N1CCCc2cc(S(=O)(=O)N3CCN(c4ccccc4)CC3)ccc21`: -7.56%; for `COc1ccccc1N1CCN(CC(O)COc2ccc(C)cc2C)CC1` (stereo not drawn): active: 75.9%; for `O=C(Nc1nnc(C(F)(F)F)s1)c1ccc(Br)s1`: active: 34.8%.
The same measure for `COc1ccc(CC(=O)NCCc2sc3nc(-c4ccc(OC)cc4)nn3c2C)cc1`: 17.2%; for `CCC(=O)N1CCc2cc(Br)cc(S(=O)(=O)CCC(=O)N3CCN(c4ccc(F)cc4)CC3)c21`: 7.21%.
The same measure for `Cc1ccccc1OCC(=O)OCc1cc(=O)n2nc(C3CC3)sc2n1`: -12.1%; for `COc1ccccc1NC(=O)CCn1nc(-c2ccccc2OC)c2c(C)cc(C)nc21`: 7.69%.
Turning to `Cc1ccccc1NC(=O)Nc1nnc(N2CCCCCC2)s1`, the inhibition worked out at 12.8%.
The same measure for `Cc1cc(C)c(C)c(OCC(=O)Nc2ccc(S(=O)(=O)Nc3nc(C)cc(C)n3)cc2)c1`: -10.2%.
